Patent US20260176317A1 (RAKUTEN MEDICAL, published 2026)
Blank lines part the entries; values can stand above or below the binder they belong to.

Target: T1, hIL-2Rβ:IL-2Rγ dimers (ACROBiosystems Cat. No. ILG-H5283) (human, UniProt P14784 27-239; P31785 23-254, limits assumed)
T1 construct: Commercial heterodimer used in solution as the analyte; also called IL-2Rβ/γc
T1 sequence (looked up) 1: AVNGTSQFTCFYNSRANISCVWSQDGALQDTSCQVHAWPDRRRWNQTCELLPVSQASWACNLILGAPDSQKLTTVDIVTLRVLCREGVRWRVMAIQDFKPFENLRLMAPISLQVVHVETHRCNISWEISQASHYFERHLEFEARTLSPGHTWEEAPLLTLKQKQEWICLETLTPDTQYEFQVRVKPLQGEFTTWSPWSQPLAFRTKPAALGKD
T1 sequence (looked up) 2: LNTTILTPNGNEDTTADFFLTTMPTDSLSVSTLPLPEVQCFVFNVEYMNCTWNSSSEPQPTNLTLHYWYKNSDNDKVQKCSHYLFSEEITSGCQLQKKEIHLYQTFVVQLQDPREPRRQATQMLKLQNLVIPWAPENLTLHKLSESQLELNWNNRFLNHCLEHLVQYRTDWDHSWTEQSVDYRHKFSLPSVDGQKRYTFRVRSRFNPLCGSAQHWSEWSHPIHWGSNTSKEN
Experiment: BLI (Octet), IL-15 complex captured on anti-human IgG tips, hIL-2Rβ:IL-2Rγ dimer in solution, 25 C
Experimental: Binding affinities of exemplary human IL-15 variant complexes generated in Example 1B were determined by Bio-Layer Interferometry (BLI) using the Sartorius Octet® system. Wild-type IL-15 and IL-15 with a substitution of aspartic acid for asparagine at position 72 (IL-15_N72D), in complex with IL-15Rα-hFc, were also expressed and purified from mammalian cells, and tested as reference molecules. Briefly, the hIL-15 complexes were captured by anti-human IgG that were immobilized on an Octet optical tip. The tips were then immersed in solutions containing various serial dilutions (1:2) to 50 mM hIL-2Rβ:IL-2Rγ dimers (ACROBiosystems Cat. No. ILG-H5283) in PBS, 0.5% tween 20 at 25° C. The on rates of the interactions were calculated from the binding traces and the off rates were determined by fitting the dissociation data obtained in PBS, 0.05% tween 20 alone. Reference wells were used to subtract background noise.

- Kd: 0.347 nM
- kon: 362000 M⁻¹ s⁻¹
B1: eIL-15-A complex (eIL-15-A in complex with IL-15Rα-hFc) (other)
chain 1: NWVNVISDLRYIESLISSMNIDACLYTESDVHPKCSVTAMLCFLLELQVISLESGDPSIHDTVENLIILANNSLSSNGNKTEDGCKECEELECKNIKEFLQSFVHIVQMFINTS
chain 2: ITCPPPMSVEHADIWVKSYSLYSRERYICNSGFKRKAGTSSLTECVLNKATNVAHWTTPSLKCIRDGGGSGGGS[human IgG1 Fc with C220S T250I (EU numbers) left out]

- Kd: 0.678 nM
- kon: 349000 M⁻¹ s⁻¹
B2: eIL-15-C complex (eIL-15-C in complex with IL-15Rα-hFc) (other)
chain 1: NWVNVISDLREIESLIQNMHIDALLYTECDVHPKCKVTAMKCFLLELQVISLESGDAPIHDTVENLIILANNSLSSNGNKTEDGCKECEELEEKNIKEFLQCFVWIVQMFILTS
chain 2: B1 chain 2
